Data from the supplement of paper PMC8728848.
This is one part of the list.

Experiments:
Assay in all cases: glycan array binding signal (z-score within array); higher = stronger binding
Conditions in all cases: glycan notation: IUPAC condensed, linker removed
[1] = target: Gal(b1-4)GlcNAc(b1-3)Gal(b1-4)GlcNAc(b1-3)Gal(b1-4)GlcNAc(b1-3)Gal(b1-4)GlcNAc(b1-2)Man(a1-3)[Gal(b1-4)GlcNAc(b1-3)Gal(b1-4)GlcNAc(b1-3)Gal(b1-4)GlcNAc(b1-3)Gal(b1-4)GlcNAc(b1-2)Man(a1-6)]Man(b1-4)GlcNAc(b1-4)[Fuc(a1-6)]GlcNAc
Procedure, shortened: (§1)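 Negative Z-scores can be read as non-binding. The Z-score is calculated within each array and then averaged across arrays of one protein sequence at different concentrations or buffers and across linkers. Arrays, 3228 in all, were curated from the Consortium for Functional Glycomics database and kept only where the protein sequence was available.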

[2] = target: Gal(b1-4)GlcNAc(b1-3)Gal(b1-4)GlcNAc(b1-3)Gal(b1-4)GlcNAc(b1-3)Gal(b1-4)GlcNAc(b1-2)[Gal(b1-4)GlcNAc(b1-3)Gal(b1-4)GlcNAc(b1-3)Gal(b1-4)GlcNAc(b1-3)Gal(b1-4)GlcNAc(b1-6)]Man(a1-6)[Gal(b1-4)GlcNAc(b1-3)Gal(b1-4)GlcNAc(b1-3)Gal(b1-4)GlcNAc(b1-3)Gal(b1-4)GlcNAc(b1-2)Man(a1-3)]Man(b1-4)GlcNAc(b1-4)[Fuc(a1-6)]GlcNAc
Procedure, shortened: as §1

[3] = target: Gal(b1-4)GlcNAc(b1-3)Gal(b1-4)GlcNAc(b1-3)Gal(b1-4)GlcNAc(b1-3)Gal(b1-4)GlcNAc(b1-3)Gal(b1-4)GlcNAc(b1-2)Man(a1-3)[Gal(b1-4)GlcNAc(b1-3)Gal(b1-4)GlcNAc(b1-3)Gal(b1-4)GlcNAc(b1-3)Gal(b1-4)GlcNAc(b1-3)Gal(b1-4)GlcNAc(b1-2)Man(a1-6)]Man(b1-4)GlcNAc(b1-4)GlcNAc
Procedure, shortened: as §1

[4] = target: Gal(b1-4)GlcNAc(b1-3)Gal(b1-4)GlcNAc(b1-3)Gal(b1-4)GlcNAc(b1-3)Gal(b1-4)GlcNAc(b1-3)Gal(b1-4)GlcNAc(b1-2)Man(a1-3)[Gal(b1-4)GlcNAc(b1-3)Gal(b1-4)GlcNAc(b1-3)Gal(b1-4)GlcNAc(b1-3)Gal(b1-4)GlcNAc(b1-3)Gal(b1-4)GlcNAc(b1-2)Man(a1-6)]Man(b1-4)GlcNAc(b1-4)[Fuc(a1-6)]GlcNAc
Procedure, shortened: as §1

[5] = target: Gal(b1-4)GlcNAc(b1-3)Gal(b1-4)GlcNAc(b1-3)Gal(b1-4)GlcNAc(b1-3)Gal(b1-4)GlcNAc(b1-3)Gal(b1-4)GlcNAc(b1-2)[Gal(b1-4)GlcNAc(b1-3)Gal(b1-4)GlcNAc(b1-3)Gal(b1-4)GlcNAc(b1-3)Gal(b1-4)GlcNAc(b1-3)Gal(b1-4)GlcNAc(b1-6)]Man(a1-6)[Gal(b1-4)GlcNAc(b1-3)Gal(b1-4)GlcNAc(b1-3)Gal(b1-4)GlcNAc(b1-3)Gal(b1-4)GlcNAc(b1-3)Gal(b1-4)GlcNAc(b1-2)Man(a1-3)]Man(b1-4)GlcNAc(b1-4)[Fuc(a1-6)]GlcNAc
Procedure, shortened: as §1

[6] = target: Gal(b1-4)GlcNAc(b1-3)Gal(b1-4)GlcNAc(b1-3)Gal(b1-4)GlcNAc(b1-3)Gal(b1-4)GlcNAc(b1-3)Gal(b1-4)GlcNAc(b1-3)Gal(b1-4)GlcNAc(b1-2)Man(a1-3)[Gal(b1-4)GlcNAc(b1-3)Gal(b1-4)GlcNAc(b1-3)Gal(b1-4)GlcNAc(b1-3)Gal(b1-4)GlcNAc(b1-3)Gal(b1-4)GlcNAc(b1-3)Gal(b1-4)GlcNAc(b1-2)Man(a1-6)]Man(b1-4)GlcNAc(b1-4)GlcNAc
Procedure, shortened: as §1

[7] = target: Gal(b1-4)GlcNAc(b1-3)Gal(b1-4)GlcNAc(b1-3)GalNAc
Procedure, shortened: as §1

[8] = target: Gal(b1-4)GlcNAc(b1-3)Gal(b1-4)GlcNAc(b1-3)[Gal(b1-4)GlcNAc(b1-3)Gal(b1-4)GlcNAc(b1-6)]GalNAc
Procedure, shortened: as §1

[9] = target: Gal(b1-4)GlcNAc(b1-3)Gal(b1-4)GlcNAc(b1-6)[Gal(b1-3)]GalNAc
Procedure, shortened: as §1

[10] = target: Gal(b1-4)GlcNAc(b1-3)Gal(b1-4)[Fuc(a1-3)]GlcNAc(b1-3)Gal(b1-4)[Fuc(a1-3)]GlcNAc
Procedure, shortened: as §1

[11] = target: Gal(b1-4)GlcNAc(b1-3)GalNAc
Procedure, shortened: as §1

[12] = target: Gal(b1-4)GlcNAc(b1-3)[Fuc(a1-3)GlcNAc(b1-6)]Gal(b1-4)Glc
Procedure, shortened: as §1

[13] = target: Gal(b1-4)GlcNAc(b1-3)[Gal(b1-4)GlcNAc(b1-6)]Gal(b1-4)GlcNAc
Procedure, shortened: as §1

[14] = target: Gal(b1-4)GlcNAc(b1-3)[GlcNAc(b1-6)]Gal(b1-4)GlcNAc
Procedure, shortened: as §1

[15] = target: Gal(b1-4)GlcNAc(b1-6)Gal(b1-4)GlcNAc
Procedure, shortened: as §1

[16] = target: Gal(b1-4)GlcNAc(b1-6)GalNAc
Procedure, shortened: as §1

[17] = target: Gal(b1-4)GlcNAc(b1-6)[Gal(b1-3)]GalNAc
Procedure, shortened: as §1

[18] = target: Gal(b1-4)GlcNAc(b1-6)[Gal(b1-4)GlcNAc(b1-3)]GalNAc
Procedure, shortened: as §1

Gal(b1-4)GlcNAc6P = target: Gal(b1-4)GlcNAc6P
Procedure, shortened: as §1

Gal(b1-6)Gal = target: Gal(b1-6)Gal
Procedure, shortened: as §1

Gal3S(b1-3)GalNAc = target: Gal3S(b1-3)GalNAc
Procedure, shortened: as §1

Gal3S(b1-3)GlcNAc = target: Gal3S(b1-3)GlcNAc
Procedure, shortened: as §1

[19] = target: Gal3S(b1-3)[Fuc(a1-4)]GlcNAc
Procedure, shortened: as §1

Gal3S(b1-4)Glc = target: Gal3S(b1-4)Glc
Procedure, shortened: as §1

Gal3S(b1-4)Glc6S = target: Gal3S(b1-4)Glc6S
Procedure, shortened: as §1

Gal3S(b1-4)GlcNAc = target: Gal3S(b1-4)GlcNAc
Procedure, shortened: as §1

[20] = target: Gal3S(b1-4)[Fuc(a1-3)]Glc6S
Procedure, shortened: as §1

[21] = target: Gal3S(b1-4)[Fuc(a1-3)]GlcNAc
Procedure, shortened: as §1

[22] = target: Gal3S(b1-4)[Fuc(a1-3)]GlcNAc6S
Procedure, shortened: as §1

Gal3S4S(b1-4)GlcNAc = target: Gal3S4S(b1-4)GlcNAc
Procedure, shortened: as §1

Gal3S6S(b1-4)GlcNAc = target: Gal3S6S(b1-4)GlcNAc
Procedure, shortened: as §1

Gal3S6S(b1-4)GlcNAc6S = target: Gal3S6S(b1-4)GlcNAc6S
Procedure, shortened: as §1

Gal4S(b1-4)GlcNAc = target: Gal4S(b1-4)GlcNAc
Procedure, shortened: as §1

Gal4S6S(b1-4)GlcNAc = target: Gal4S6S(b1-4)GlcNAc
Procedure, shortened: as §1

Gal6P(b1-4)GlcNAc = target: Gal6P(b1-4)GlcNAc
Procedure, shortened: as §1

Gal6S(b1-3)GlcNAc = target: Gal6S(b1-3)GlcNAc
Procedure, shortened: as §1

Gal6S(b1-3)GlcNAc6S = target: Gal6S(b1-3)GlcNAc6S
Procedure, shortened: as §1

Gal6S(b1-4)Glc = target: Gal6S(b1-4)Glc
Procedure, shortened: as §1

B1: FimD (Bordetella pertussis) (protein)
chain: MPARVISFCGAALAVWAGLAVQPAMAVDPPVDCGRALGLHFWSSASLISDQTPDGTLIGKPVVGRSLLSKSCKVPDDIKEDLSDNHDGEPVDIVLELGSNYKIRPQSYGHPGIVVDLPFGSTEETGIAIYIDFGSSPMQKVGERQWLYPQKGEVLFDVLTINGDNAEVRYQAIKVGPLKRPRKLVLSQFPNLFTYKWVFMRGTSQERVLAQGTIDTDVATSTIDLKTCRYTSQTVSLPIIQRSALTGVGTTLGMTDFQMPFWCYGWPKVSVYMSATKTQTGVDGVALPATGQAAGMASGVGVQLINGKTQQPVKLGLQGKIALPEAQQTESATFSLPMKAQYYQTSTSTSAGKLSVTYAVTLNYD
glycan array binding signal (z-score) [1]: 0.462 | glycan array binding signal (z-score) [2]: 0.871 | glycan array binding signal (z-score) [3]: 0.072 | glycan array binding signal (z-score) [4]: 0.144 | glycan array binding signal (z-score) [5]: 0.919 | glycan array binding signal (z-score) [6]: 0.71 | glycan array binding signal (z-score) [7]: 0.01 | glycan array binding signal (z-score) [8]: 0.562 | glycan array binding signal (z-score) [9]: 0.312 | glycan array binding signal (z-score) [10]: -0.263 | glycan array binding signal (z-score) [11]: -0.367 | glycan array binding signal (z-score) [12]: 0 | glycan array binding signal (z-score) [13]: -0.436 | glycan array binding signal (z-score) [14]: 0.015 | glycan array binding signal (z-score) [15]: -0.084 | glycan array binding signal (z-score) [16]: 0.113 | glycan array binding signal (z-score) [17]: -0.17 | glycan array binding signal (z-score) [18]: -0.047 | glycan array binding signal (z-score) (Gal(b1-4)GlcNAc6P): -0.29 | glycan array binding signal (z-score) (Gal(b1-6)Gal): -0.194 | glycan array binding signal (z-score) (Gal3S(b1-3)GalNAc): -0.283 | glycan array binding signal (z-score) (Gal3S(b1-3)GlcNAc): 0.217 | glycan array binding signal (z-score) [19]: 0.129 | glycan array binding signal (z-score) (Gal3S(b1-4)Glc): -0.263 | glycan array binding signal (z-score) (Gal3S(b1-4)Glc6S): -0.183 | glycan array binding signal (z-score) (Gal3S(b1-4)GlcNAc): 0.307 | glycan array binding signal (z-score) [20]: 0.584 | glycan array binding signal (z-score) [21]: 0.375 | glycan array binding signal (z-score) [22]: 0.094 | glycan array binding signal (z-score) (Gal3S4S(b1-4)GlcNAc): -0.393 | glycan array binding signal (z-score) (Gal3S6S(b1-4)GlcNAc): -0.282 | glycan array binding signal (z-score) (Gal3S6S(b1-4)GlcNAc6S): -0.162 | glycan array binding signal (z-score) (Gal4S(b1-4)GlcNAc): -0.395 | glycan array binding signal (z-score) (Gal4S6S(b1-4)GlcNAc): -0.13 | glycan array binding signal (z-score) (Gal6P(b1-4)GlcNAc): -0.534 | glycan array binding signal (z-score) (Gal6S(b1-3)GlcNAc): 0.772 | glycan array binding signal (z-score) (Gal6S(b1-3)GlcNAc6S): -0.319 | glycan array binding signal (z-score) (Gal6S(b1-4)Glc): -0.01
